Measured values taken from PMC6677663, “KDM2A-dependent reduction of rRNA transcription on glucose starvation requires HP1 in cells, including triple-negative breast cancer cells” (Oncotarget, 2019).
These are yes or no findings as the source states them, for the method shown. Sequences can lack the tags named with a protein.

The chains behind the UniProt entries cited, without tags or fusion partners. Where a name states a change or a piece, a line headed by the entry shows the natural chain unless it says otherwise.
UniProt Q13185: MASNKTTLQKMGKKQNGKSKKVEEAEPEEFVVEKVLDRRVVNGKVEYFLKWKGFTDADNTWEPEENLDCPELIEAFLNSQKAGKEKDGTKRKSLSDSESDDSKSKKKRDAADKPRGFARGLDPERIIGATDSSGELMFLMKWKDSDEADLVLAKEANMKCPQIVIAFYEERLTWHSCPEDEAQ

Key:
[1] = biological target: T1, Recombinant His-tagged HP1γ (human, UniProt Q13185 1-183); experiment: pull-down; His-tagged HP1γ forms incubated with GST-KDM2A fragments in 300 mM NaCl, 50 mM Na-phosphate pH 7.0, 4 °C 1 h; collected on TALON resin (1% NP40 washes); SDS-PAGE; both purified
T1 construct: HP1γ, human; the cDNA used encodes 183 amino acids; pCold I vector; also called His-HP1γ; His-tag HP1γ; source: E. coli DH5α (pCold I), isolated with TALON His-tag resin, dialysed

[2] = biological target: T2, Recombinant His-tagged HP1γ (CSD) (human, UniProt Q13185 110-183); experiment: as above
T2 construct: HP1γ, human, chromoshadow domain construct, amino acids 110-183; Limits 110-183 are those printed for the HP1γ (CSD) cDNA; the His-tag plasmids are described only as 'His-tag HP1γ and its mutants'; also called CSD of HP1γ; His-HP1γ mutant; source: E. coli DH5α (pCold I), isolated with TALON His-tag resin, dialysed

binding [1]: no binding
binding [2]: no binding
Binder: ELSEVEKAKIRGSYLTETLQRPTKELHGTSIVP (domain or fragment, UniProt Q9Y2K7 785-817) [recombinant KDM2A fragment (amino acids 785–817, V801E) fused with GST]
